The supplement of paper PMC12217912
Some of the results follow. Sequences were assembled here from the parent chain. Inactive controls read about 0.05.

B1: TEV protease; numbered along this chain (parent)
chain: MGESLFKGPRDYNPISSSICHLTNESDGHTTSLYGIGFGPFIITNKHLFRRNNGTLVVQSLHGVFKVKDTTTLQQHLVDGRDMIIIRMPKDFPPFPQKLKFREPQREERICLVTTNFQTKSMSSMVSDTSCTFPSGDGIFWKHWIQTKDGQCGSPLVSTRDGFIVGIHSASNFTNTNNYFTSVPKNFMELLTNQEAQQWVSGWRLNADSVLWGGHKVFMVKPEEPFQPVKEATQL

Variants of: B1
Test: raw area under fraction-flipped curve 0-4 h after induction (AUC4h, not background-subtracted), DNA-recorder readout of cleavage of the substrate (dimensionless); higher = more cleavage of the substrate by the protease variant
Settings: temperature: 34 °C; time window: 0-4 h after rhamnose induction
Protocol: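 In vivo DNA recorder in E. coli TOP10(DE3) ΔrhaA at 34 °C. Each TEVp single-site mutant (parent TEVp 0) is paired with a single-site variant of the 7-mer TEVs (canonical ENLYFQ|S). The substrate sits between flexible linkers in a Bxb1-sfGFP-TEVs-SsrA fusion, so cleavage stabilises Bxb1 and speeds flipping of a recombination array, read by NGS. The value is the raw area under the fraction-flipped curve over 0-4 h after rhamnose induction (AUC4h), with ≥20 reads per time point. It is not background-subtracted; inactive controls average about 0.047.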
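Note: Bxb1 expression induced with 0.2% (w/v) L-rhamnose at OD600 near 0.5, cultures sampled hourly, flipped fraction per protease–substrate barcode pair counted by paired-end Illumina sequencing.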

Variant | area with substrate ENLYFQA | area with substrate ENLYFQC | area with substrate ENLYFQD | area with substrate ENLYFQE | area with substrate ENLYFQG | area with substrate ENLYFQH | area with substrate ENLYFQM | area with substrate ENLYFQN | area with substrate ENLYFQR | area with substrate ENLYFQS | area with substrate ENLYFQT | area with substrate ENLYFQV | area with substrate ENLYFQW | area with substrate ENLYFQY | area with substrate ENLYFQI | area with substrate ENLYFQK | area with substrate ENLYFQL | area with substrate ENLYFQQ | area with substrate ENLYFQF | area with substrate ENLYFQP
MGESLFKGPRDYNPISSSICHLTNESDGHTTSLYGIGFGPFIITNKHLFRRNNGTLVVQSLHGVFKVKDTTTLQQHLVDGRDMIIIRMPKDFPPFPQKLKFREPQREERICLVTTNFQTKSMSSMVSDTSCTFPSGDGIFWKHWIQTKDGQCGSPLVSTRDGFIVGIHSASNFTNTNNYFTYVPKNFMELLTNQEAQQWVSGWRLNADSVLWGGHKVFMVKPEEPFQPVKEATQL [S182Y] | 0.0521 | 0.0531 | 0.0558 | 0.0499 | 0.0571 | 0.0454 | 0.0668 | 0.0421 | 0.0616 | 0.0577 | 0.0567 | 0.0511 | 0.0491 | 0.0684 | – | – | – | – | – | –
MGESLFKGPRDYNPISSSICHLTNESDGHTTSLYGIGFGPFIITNKHLFRRNNGTLVVQSLHGVFKVKDTTTLQQHLVDGRDMIIIRMPKDFPPFPQKLKFREPQREERICLVTTNFQTKSMSSMVSDTSCTFPSGDGIFWKHWIQTKDGQCGSPLVSTRDGFIVGIHSASNFTNTNNYFTSVPKNFMELLTNQEAQQWVSGWRLNADSVRWGGHKVFMVKPEEPFQPVKEATQL [L211R] | 0.0846 | 0.0844 | – | – | – | – | – | 0.0829 | 0.0645 | 0.102 | – | – | – | – | 0.0546 | 0.0703 | 0.0326 | 0.0538 | – | –
MGESLFKGPRDYNPISSSICHLTNESDGHTTSLYGIGFGPFIITNKHLFRRNNGTLVVQSLHGVFKVKDTTTLQQHLVDGRDMIIIRMPPDFPPFPQKLKFREPQREERICLVTTNFQTKSMSSMVSDTSCTFPSGDGIFWKHWIQTKDGQCGSPLVSTRDGFIVGIHSASNFTNTNNYFTSVPKNFMELLTNQEAQQWVSGWRLNADSVLWGGHKVFMVKPEEPFQPVKEATQL [K90P] | 0.0954 | 0.108 | 0.0573 | – | 0.0846 | 0.0764 | – | 0.0081 | 0.0613 | 0.101 | 0.052 | – | 0.0644 | 0.0764 | – | 0.0667 | – | – | – | –
MGESLFKGPRDYNPISSSICHLTNESDGHTTSLYGIGFGPFIITNKHLFRRNNGTLVVQSLHGVFKVKDTTTLQQHLVDGRDMIIIRMPKDFPPFPQKLKFREPQREERICLVTTNFQTKSMSSMVSDTSCTFPSGDGIFWKHWIQKKDGQCGSPLVSTRDGFIVGIHSASNFTNTNNYFTSVPKNFMELLTNQEAQQWVSGWRLNADSVLWGGHKVFMVKPEEPFQPVKEATQL [T147K] | 0.0479 | 0.0567 | 0.0389 | – | – | – | 0.0624 | – | 0.0731 | 0.0591 | 0.0588 | – | – | 0.0674 | – | – | 0.0622 | – | – | –
MGESLFKGPRDYNPISSSICHLTNESDGHTTSLYGIGFGPFIITNKHLFRRNNGTLVVQSLHGVFKVKDTTTLQQHLVDGRDMIILRMPKDFPPFPQKLKFREPQREERICLVTTNFQTKSMSSMVSDTSCTFPSGDGIFWKHWIQTKDGQCGSPLVSTRDGFIVGIHSASNFTNTNNYFTSVPKNFMELLTNQEAQQWVSGWRLNADSVLWGGHKVFMVKPEEPFQPVKEATQL [I86L] | 0.129 | – | 0.0941 | – | 0.139 | 0.0735 | – | – | 0.0468 | 0.115 | 0.0842 | – | – | – | 0.055 | – | – | – | – | –
MGESLFKGPRDYNPISSSICHLTNESDGHTTSLYGIGFGPFIITNKHLFRRNNGTLVVQSLHGVFKVKDTTTLQQHLVDGRDMIIIRMPKDFPPFPQKLKFREPQREERICLVTLNFQTKSMSSMVSDTSCTFPSGDGIFWKHWIQTKDGQCGSPLVSTRDGFIVGIHSASNFTNTNNYFTSVPKNFMELLTNQEAQQWVSGWRLNADSVLWGGHKVFMVKPEEPFQPVKEATQL [T115L] | 0.0764 | – | – | – | – | 0.0942 | 0.0857 | 0.0974 | – | 0.106 | 0.0606 | – | – | 0.0763 | – | – | 0.0391 | – | 0.049 | 0.096
MGESLFKGPRDYNPISSSICHLTNESDGHTTSLYGIGFGPFIYTNKHLFRRNNGTLVVQSLHGVFKVKDTTTLQQHLVDGRDMIIIRMPKDFPPFPQKLKFREPQREERICLVTTNFQTKSMSSMVSDTSCTFPSGDGIFWKHWIQTKDGQCGSPLVSTRDGFIVGIHSASNFTNTNNYFTSVPKNFMELLTNQEAQQWVSGWRLNADSVLWGGHKVFMVKPEEPFQPVKEATQL [I43Y] | 0.0454 | 0.0675 | 0.0547 | 0.0399 | – | – | 0.052 | – | 0.0543 | 0.0539 | 0.0393 | 0.0427 | 0.0536 | 0.0487 | – | 0.0522 | 0.0518 | – | 0.0409 | –
MGESLFKGPRDYNPISSSICHLTNESDGHTTSLYGIGFGPFIITNKHLFRRNNGTLVVQSLHGVFKVKDTTTLQQHLVDGRDMIIIRMPKDFPPFPQKLKFREPQREERICLVTTNFQTKSMSSMVSDTSCTFPSGDGIFWKHWIQTKDGQCGSPLVSTRDGFIVGIHSASNFTNTNNYFTSVPKNFMFLLTNQEAQQWVSGWRLNADSVLWGGHKVFMVKPEEPFQPVKEATQL [E189F] | 0.0781 | 0.104 | – | – | 0.0907 | – | – | 0.0791 | 0.0987 | 0.099 | 0.0642 | 0.0483 | – | 0.0845 | 0.0519 | 0.0698 | 0.0771 | 0.0617 | 0.0753 | 0.0626
MGESLFKGPRDYNPISSSICHLTNESDGHTTSLYGIGFGPFIITNKHLFRRNNGTLVVQSLHGVFKVKDTTTLQQHLVDGRDMIIIRMPKDFPPFPQKLKFREPQREERICLVTTNFQTKSMSSMVSDTSCTFPSGDGIFWKHWIQTKDGQCGSPLVSTRDGFIVGIHSASNFTNTNNYFTSVPKNFMELLTNQEAQMWVSGWRLNADSVLWGGHKVFMVKPEEPFQPVKEATQL [Q198M] | 0.105 | 0.109 | – | – | 0.0958 | 0.0991 | 0.12 | – | 0.0604 | 0.0956 | 0.0555 | 0.0581 | 0.0614 | 0.0738 | 0.0484 | 0.0611 | 0.0553 | 0.0809 | – | 0.0626
MGESLFKGPRDYNPISSSICHLTNESDGHTTSLYGIGFGPFIITNKHLFRRNNGTLVVQSLHGVFKVKDTTTLQQHLVDGRDMIIIRMPKDFPPFPQKLKFREPQREERICLVTTNFQTKSMSSMVSDTSCTFPSGDGIFWKHWIQTKDGQCGSPLVSTRDGFIVGIHSASNFTNTNNYFTSVPKNFMELLTNQEAQQWVSGWRLNADSVLWGGHKVWMVKPEEPFQPVKEATQL [F218W] | 0.103 | 0.119 | 0.0619 | – | 0.0877 | 0.0801 | – | 0.0822 | – | 0.0932 | 0.0629 | – | – | – | – | 0.0602 | – | – | 0.066 | 0.0582
